Measurements reported in US20240076343A1 (CEPHALON, published 2024).

Columns and labels:
[1] = molecular target: T1, recombinant human CD122 extracellular domain, C-terminal poly-histidine tagged (human, UniProt P14784 27-240); assay: BLI (Octet)
T1 construct: also called CD122/IL-2Rβ; IL-2Rβ
T1 sequence: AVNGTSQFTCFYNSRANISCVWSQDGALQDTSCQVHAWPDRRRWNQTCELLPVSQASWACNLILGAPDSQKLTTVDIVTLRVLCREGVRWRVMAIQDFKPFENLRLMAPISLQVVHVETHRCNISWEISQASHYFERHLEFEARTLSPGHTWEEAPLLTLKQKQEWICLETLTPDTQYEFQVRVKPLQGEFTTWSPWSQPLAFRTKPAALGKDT

[2] = molecular target: T2, recombinant human CD25 extracellular domain, C-terminal poly-histidine tagged (human, UniProt P01589 22-240); assay: BLI (Octet)
T2 construct: also called CD25/IL-2Rα; IL-2Rα
T2 sequence: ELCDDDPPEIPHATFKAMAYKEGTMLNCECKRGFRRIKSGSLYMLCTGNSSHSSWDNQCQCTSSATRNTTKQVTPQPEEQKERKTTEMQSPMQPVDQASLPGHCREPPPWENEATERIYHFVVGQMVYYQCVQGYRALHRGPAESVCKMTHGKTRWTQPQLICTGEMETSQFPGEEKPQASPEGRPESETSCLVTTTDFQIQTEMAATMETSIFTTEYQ

Binder	binding result [1]	Kd [2] [nM]	koff [2] [s⁻¹]	kon [2] [M⁻¹ s⁻¹]	other results
1H3-hIgG1-L6-hIL-2 (D20A/E95A/Q126D) (other, Built as m13) heavy: EVQLVESGGGLVQPGRSLKLSCAVSGFTFSDYAMAWVRQAPKKGLEWVATISYDGSRTYYRDSVKGRFTISRDNAKITLYLQMDSLRSEDTATYYCARHGSGYFDYWGQGVMVTVSS[not shown - human IgG1 constant region]SGGGGSAPTSSSTKKTQLQLEHLLLALQMILNGINNYKNPKLTRMLTFKFYMPKKATELKHLQCLEEELKPLEEVLNLAQSKNFHLRPRDLISNINVIVLALKGSETTFMCEYADETATIVEFLNRWITFCDSIISTLT light: DTVLTQSPALAVSPGERVTISCRASESVRTGVHWYQQKPGQQPKLLIYGASNLESGVPARFSGSGSGTDFTLTIDPVEADDTATYFCQQSWNDPFTFGSGTKLEIKRTVAAPSVFIFPPSDEQLKSGTASVVCLLNNFYPREAKVQWKVDNALQSGNSQESVTEQDSKDSTYSLSSTLTLSKADYEKHKVYACEVTHQGLSSPVTKSFNRGEC	no binding (tested: 300 nM)	3.34	0.000162	48700	
1H3-hIgG1-L6-hIL-2 (D20F) (other, Built as m13) heavy: EVQLVESGGGLVQPGRSLKLSCAVSGFTFSDYAMAWVRQAPKKGLEWVATISYDGSRTYYRDSVKGRFTISRDNAKITLYLQMDSLRSEDTATYYCARHGSGYFDYWGQGVMVTVSS[not shown - about 450 residues with a human IgG1 Fc and changes] light: DTVLTQSPALAVSPGERVTISCRASESVRTGVHWYQQKPGQQPKLLIYGASNLESGVPARFSGSGSGTDFTLTIDPVEADDTATYFCQQSWNDPFTFGSGTKLEIKRTVAAPSVFIFPPSDEQLKSGTASVVCLLNNFYPREAKVQWKVDNALQSGNSQESVTEQDSKDSTYSLSSTLTLSKADYEKHKVYACEVTHQGLSSPVTKSFNRGEC	no binding (tested: 300 nM)	1.57	0.000275	175000	
1H3-hIgG1-L6-hIL-2 (D20H) (other, Built as m13) heavy: EVQLVESGGGLVQPGRSLKLSCAVSGFTFSDYAMAWVRQAPKKGLEWVATISYDGSRTYYRDSVKGRFTISRDNAKITLYLQMDSLRSEDTATYYCARHGSGYFDYWGQGVMVTVSS[not shown - about 450 residues with a human IgG1 Fc and changes] light: DTVLTQSPALAVSPGERVTISCRASESVRTGVHWYQQKPGQQPKLLIYGASNLESGVPARFSGSGSGTDFTLTIDPVEADDTATYFCQQSWNDPFTFGSGTKLEIKRTVAAPSVFIFPPSDEQLKSGTASVVCLLNNFYPREAKVQWKVDNALQSGNSQESVTEQDSKDSTYSLSSTLTLSKADYEKHKVYACEVTHQGLSSPVTKSFNRGEC	no binding (tested: 300 nM)	1.13	0.000212	188000	
1H3-hIgG1-L6-hIL-2 (D20I) (other, Built as m13) heavy: EVQLVESGGGLVQPGRSLKLSCAVSGFTFSDYAMAWVRQAPKKGLEWVATISYDGSRTYYRDSVKGRFTISRDNAKITLYLQMDSLRSEDTATYYCARHGSGYFDYWGQGVMVTVSS[not shown - about 450 residues with a human IgG1 Fc and changes] light: DTVLTQSPALAVSPGERVTISCRASESVRTGVHWYQQKPGQQPKLLIYGASNLESGVPARFSGSGSGTDFTLTIDPVEADDTATYFCQQSWNDPFTFGSGTKLEIKRTVAAPSVFIFPPSDEQLKSGTASVVCLLNNFYPREAKVQWKVDNALQSGNSQESVTEQDSKDSTYSLSSTLTLSKADYEKHKVYACEVTHQGLSSPVTKSFNRGEC	no binding (tested: 300 nM)	1.16	0.000198	170000	
1H3-hIgG1-L6-hIL-2 (D20R) (other, Built as m13) heavy: EVQLVESGGGLVQPGRSLKLSCAVSGFTFSDYAMAWVRQAPKKGLEWVATISYDGSRTYYRDSVKGRFTISRDNAKITLYLQMDSLRSEDTATYYCARHGSGYFDYWGQGVMVTVSS[not shown - about 450 residues with a human IgG1 Fc and changes] light: DTVLTQSPALAVSPGERVTISCRASESVRTGVHWYQQKPGQQPKLLIYGASNLESGVPARFSGSGSGTDFTLTIDPVEADDTATYFCQQSWNDPFTFGSGTKLEIKRTVAAPSVFIFPPSDEQLKSGTASVVCLLNNFYPREAKVQWKVDNALQSGNSQESVTEQDSKDSTYSLSSTLTLSKADYEKHKVYACEVTHQGLSSPVTKSFNRGEC	no binding (tested: 300 nM)	1.21	0.000175	144000	
1H3-hIgG1-L6-hIL-2 (E62K) (other, Built as m13) heavy: EVQLVESGGGLVQPGRSLKLSCAVSGFTFSDYAMAWVRQAPKKGLEWVATISYDGSRTYYRDSVKGRFTISRDNAKITLYLQMDSLRSEDTATYYCARHGSGYFDYWGQGVMVTVSS[not shown - about 450 residues with a human IgG1 Fc and changes] light: DTVLTQSPALAVSPGERVTISCRASESVRTGVHWYQQKPGQQPKLLIYGASNLESGVPARFSGSGSGTDFTLTIDPVEADDTATYFCQQSWNDPFTFGSGTKLEIKRTVAAPSVFIFPPSDEQLKSGTASVVCLLNNFYPREAKVQWKVDNALQSGNSQESVTEQDSKDSTYSLSSTLTLSKADYEKHKVYACEVTHQGLSSPVTKSFNRGEC					binding result [2]: no binding (tested: 300 nM)
1H3-hIgG1-L6-hIL-2 (E62R) (other, Built as m13) heavy: EVQLVESGGGLVQPGRSLKLSCAVSGFTFSDYAMAWVRQAPKKGLEWVATISYDGSRTYYRDSVKGRFTISRDNAKITLYLQMDSLRSEDTATYYCARHGSGYFDYWGQGVMVTVSS[not shown - about 450 residues with a human IgG1 Fc and changes] light: DTVLTQSPALAVSPGERVTISCRASESVRTGVHWYQQKPGQQPKLLIYGASNLESGVPARFSGSGSGTDFTLTIDPVEADDTATYFCQQSWNDPFTFGSGTKLEIKRTVAAPSVFIFPPSDEQLKSGTASVVCLLNNFYPREAKVQWKVDNALQSGNSQESVTEQDSKDSTYSLSSTLTLSKADYEKHKVYACEVTHQGLSSPVTKSFNRGEC					binding result [2]: no binding (tested: 300 nM)
1H3-hIgG1-L6-hIL-2 (N88R) (other, Built as m13) heavy: EVQLVESGGGLVQPGRSLKLSCAVSGFTFSDYAMAWVRQAPKKGLEWVATISYDGSRTYYRDSVKGRFTISRDNAKITLYLQMDSLRSEDTATYYCARHGSGYFDYWGQGVMVTVSS[not shown - about 450 residues with a human IgG1 Fc and changes] light: DTVLTQSPALAVSPGERVTISCRASESVRTGVHWYQQKPGQQPKLLIYGASNLESGVPARFSGSGSGTDFTLTIDPVEADDTATYFCQQSWNDPFTFGSGTKLEIKRTVAAPSVFIFPPSDEQLKSGTASVVCLLNNFYPREAKVQWKVDNALQSGNSQESVTEQDSKDSTYSLSSTLTLSKADYEKHKVYACEVTHQGLSSPVTKSFNRGEC	no binding (tested: 300 nM)				
1H3-hIgG1-L6-hIL-2 (N88Y) (other, Built as m13) heavy: EVQLVESGGGLVQPGRSLKLSCAVSGFTFSDYAMAWVRQAPKKGLEWVATISYDGSRTYYRDSVKGRFTISRDNAKITLYLQMDSLRSEDTATYYCARHGSGYFDYWGQGVMVTVSS[not shown - about 450 residues with a human IgG1 Fc and changes] light: DTVLTQSPALAVSPGERVTISCRASESVRTGVHWYQQKPGQQPKLLIYGASNLESGVPARFSGSGSGTDFTLTIDPVEADDTATYFCQQSWNDPFTFGSGTKLEIKRTVAAPSVFIFPPSDEQLKSGTASVVCLLNNFYPREAKVQWKVDNALQSGNSQESVTEQDSKDSTYSLSSTLTLSKADYEKHKVYACEVTHQGLSSPVTKSFNRGEC	no binding (tested: 300 nM)				
1H3-hIgG1-L6-hIL-2 (R81A) (other, Built as m13) heavy: EVQLVESGGGLVQPGRSLKLSCAVSGFTFSDYAMAWVRQAPKKGLEWVATISYDGSRTYYRDSVKGRFTISRDNAKITLYLQMDSLRSEDTATYYCARHGSGYFDYWGQGVMVTVSS[not shown - about 450 residues with a human IgG1 Fc and changes] light: DTVLTQSPALAVSPGERVTISCRASESVRTGVHWYQQKPGQQPKLLIYGASNLESGVPARFSGSGSGTDFTLTIDPVEADDTATYFCQQSWNDPFTFGSGTKLEIKRTVAAPSVFIFPPSDEQLKSGTASVVCLLNNFYPREAKVQWKVDNALQSGNSQESVTEQDSKDSTYSLSSTLTLSKADYEKHKVYACEVTHQGLSSPVTKSFNRGEC					Kd [1]: 7.08 nM; koff [1]: 0.00156 s⁻¹; kon [1]: 220000 M⁻¹ s⁻¹
1H3-hIgG1-L6-hIL-2 (S87A) (other, Built as m13) heavy: EVQLVESGGGLVQPGRSLKLSCAVSGFTFSDYAMAWVRQAPKKGLEWVATISYDGSRTYYRDSVKGRFTISRDNAKITLYLQMDSLRSEDTATYYCARHGSGYFDYWGQGVMVTVSS[not shown - about 450 residues with a human IgG1 Fc and changes] light: DTVLTQSPALAVSPGERVTISCRASESVRTGVHWYQQKPGQQPKLLIYGASNLESGVPARFSGSGSGTDFTLTIDPVEADDTATYFCQQSWNDPFTFGSGTKLEIKRTVAAPSVFIFPPSDEQLKSGTASVVCLLNNFYPREAKVQWKVDNALQSGNSQESVTEQDSKDSTYSLSSTLTLSKADYEKHKVYACEVTHQGLSSPVTKSFNRGEC					Kd [1]: 7.09 nM; koff [1]: 0.00234 s⁻¹; kon [1]: 331000 M⁻¹ s⁻¹
